Structures can show the parent of a compound that is named as a salt. Where two headings read alike, the source gives them in different places.
What was measured:
[1] = target: T1, human NTCP (Homo sapiens, UniProt Q14973); assay: Screening taurocholate uptake assay (96-well, [14C]taurocholate, 10 µM drug); details: for remaining activity at 10 µM: 10 min, read-out: %NTCP activity
T1 sequence (Q14973 1-349): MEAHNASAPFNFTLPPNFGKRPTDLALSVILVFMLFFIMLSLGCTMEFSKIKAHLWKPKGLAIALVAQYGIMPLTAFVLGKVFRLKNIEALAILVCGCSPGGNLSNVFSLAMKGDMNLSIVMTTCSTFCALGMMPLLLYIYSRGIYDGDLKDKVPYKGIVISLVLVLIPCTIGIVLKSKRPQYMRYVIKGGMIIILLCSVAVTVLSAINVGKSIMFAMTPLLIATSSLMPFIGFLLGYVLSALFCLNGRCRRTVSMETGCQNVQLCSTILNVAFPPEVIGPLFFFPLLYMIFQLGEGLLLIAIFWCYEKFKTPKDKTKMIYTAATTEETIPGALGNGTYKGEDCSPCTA

[2] = target: T1, human NTCP; assay: Screening fluorescent competitive Myrcludex B-FITC binding assay (96-well, 10 µM drug)
[3] = screen, 10 µM drug, [14C]taurocholate uptake
[4] = screen, 10 µM drug, Myrcludex B-FITC binding
[5] = Prestwick library screen, 10 µM drug, Myrcludex B-FITC binding
[6] = Prestwick library screen, [14C]taurocholate uptake, 10 µM drug
[7] = Prestwick library screen, Myrcludex B-FITC binding, 10 µM drug

Row | Structure (SMILES) | remaining activity at 10 µM [1] [%] | remaining activity at 10 µM ([2]; 0.5 h, read-out: %NTCP binding) [%] | also measured
1 | CCc1cccc(CC)c1NC(=O)CN(CC(=O)O)CC(=O)O [Etifenin] | 47.1 | 77 | –
2 | Clc1ccc(C(Cn2ccnc2)OCc2csc3c(Cl)cccc23)c(Cl)c1 (centres unmarked) [Sertaconazole nitrate] | 86.9 | 91.1 | –
3 | CN(N=O)C(=O)N[C@H]1C(O)O[C@H](CO)[C@@H](O)[C@@H]1O (mixture of isomers) [Streptozotocin] | – | – | %NTCP activity [1, 3]: 69.3712%; %NTCP binding [2, 4]: 117.89%
4 | CC(C)NCC(O)c1ccc2ccccc2c1.Cl (centres unmarked) [Pronethalol hydrochloride] | – | – | %NTCP activity [1, 3]: 69.3345%; %NTCP binding [2, 4]: 103.471%
5 | Nc1nc(O)c2ncn(COC(CO)CO)c2n1 [Ganciclovir] | 87 | 109 | –
6 | NNC(=O)c1ccncc1 [Isoniazid] | 106 | 91.3 | –
7 | CCOC(=O)/C=C(C)/C=C/C=C(C)/C=C/c1c(C)cc(OC)c(C)c1C [Etretinate] | 126 | 82.6 | –
8 | COc1ccc(C(CN(C)C)C2(O)CCCCC2)cc1 (centres unmarked) [Venlafaxine] | 118 | – | remaining activity at 10 µM ([2]; 0.5 h, read-out: %NTCP binding, screen, 10 µM drug, Myrcludex B-FITC binding): 76.2%
9 | CCCNC(C)C(=O)Nc1ccccc1C (centres unmarked) [Prilocaine hydrochloride] | 128 | 52.4 | –
10 | O=C1O[C@H]([C@@H](O)CO)C(O)=C1O [Ascorbic acid] | 57.2 | 77.9 | –
11 | CC(=O)OCC1=C(C(=O)O)N2C(=O)[C@@H](N)[C@H]2SC1 [Cephalosporanic acid, 7-amino] | – | – | %NTCP activity [1]: 42.4571%; %NTCP binding [2, 5]: 88.3299%
12 | C[C@H](N[C@@H](CCc1ccccc1)C(=O)O)C(=O)N1CCC[C@H]1C(=O)O.O.O [Enalaprilat dihydrate] | – | – | %NTCP activity [1, 6]: 100.095%; %NTCP binding [2, 7]: 43.1125%
13 | CC(C)C[C@H](NC(=O)[C@@H](O)[C@H](N)Cc1ccccc1)C(=O)O [Ubenimex] | 88.1 | 64.2 | –
14 | CN1CCN(c2c(F)cc3c(=O)c(C(=O)O)cn4c3c2SCC4)CC1 [Rufloxacin] | 83.6 | 94.2 | –
15 | COc1ccccc1O [Guaiacol] | 81.9 | 104 | –
16 | COc1ccc(OC)c(C(O)CNC(=O)CN)c1 (centres unmarked) [Midodrine hydrochloride] | 91.8 | 92.7 | –

Row | Structure (SMILES) | remaining activity at 10 µM [1] [%] | remaining activity at 10 µM ([2]; 0.5 h, read-out: %NTCP binding) [%] | also measured
17 | CO[C@H]1C[C@H](O[C@H]2[C@H](C)[C@@H](O[C@@H]3O[C@H](C)C[C@H](N(C)C)[C@H]3OC(C)=O)[C@@H](C)C[C@@]3(CO3)C(=O)[C@H](C)[C@@H](OC(C)=O)[C@@H](C)[C@@H](C)OC(=O)[C@@H]2C)O[C@@H](C)[C@@H]1OC(C)=O [Troleandomycin] | 73.7 | 114 | –
18 | CCCN(CCC)S(=O)(=O)c1ccc(C(=O)O)cc1 [Probenecid] | 81.9 | 82.3 | –
19 | Cc1ccccc1N1C(=O)c2cc(S(N)(=O)=O)c(Cl)cc2NC1C (centres unmarked) [Metolazone] | 40.8 | 99.8 | –
20 | CC(=O)O[C@H]1C[C@@H]2CC[C@@H]3[C@H](CC[C@@]4(C)[C@H]3C[C@H]([N+]3(C)CCCCC3)[C@@H]4OC(C)=O)[C@@]2(C)C[C@@H]1[N+]1(C)CCCCC1 [Pancuronium bromide] | 115 | – | remaining activity at 10 µM ([2]; 0.5 h, read-out: %NTCP binding, Prestwick library screen, Myrcludex B-FITC binding, 10 µM drug): 83.3%
21 | CC/C(=C(\c1ccccc1)c1ccc(OCCN(C)C)cc1)c1ccccc1 [Tamoxifen citrate] | 69.2 | 81.8 | –
22 | CN1CCC(=C2c3ccccc3CC(=O)c3sccc32)CC1 [Ketotifen fumarate] | 125 | 60.7 | –
23 | O=C1NCCN1c1ncc([N+](=O)[O-])s1 [Niridazole] | 23.8 | 46.6 | –
24 | CC1COc2c(N3CCN(C)CC3)c(F)cc3c(=O)c(C(=O)O)cn1c23 (centres unmarked) [Ofloxacin] | 130 | 71.4 | –
25 | Nc1nc(F)nc2c1ncn2[C@@H]1O[C@H](CO)[C@@H](O)[C@@H]1O [Fludarabine] | 118 | 107 | –
26 | COc1cc2nc(N3CCN(C(=O)C4COc5ccccc5O4)CC3)nc(N)c2cc1OC (centres unmarked) [Doxazosin mesylate] | 111 | 86.9 | –
27 | CC(C)NC[C@@H](O)c1ccc(O)c(O)c1.O=C(O)C(O)C(O)C(=O)O [(+)-Isoproterenol (+)-bitartrate salt] | – | – | %NTCP activity [1, 6]: 65.54%; %NTCP binding [2, 7]: 118.941%
28 | CCOc1ccc2c(c1)C(C)=CC(C)(C)N2 [Ethoxyquin] | 66.2 | 90.7 | –
29 | CN(C)CC/C=C1/c2ccccc2Sc2ccc(Cl)cc21 [Chlorprothixene hydrochloride] | 71.3 | 70.3 | –
30 | CC(C)(S)C(N)C(=O)O (racemic) [D,L-Penicillamine] | – | – | %NTCP activity ([1]; Prestwick library screen, 10 µM drug, [14C]taurocholate uptake): 111.132%; %NTCP binding [2, 5]: 87.7937%
31 | CCN(CC)CCOc1ccc(C(=C(Cl)c2ccccc2)c2ccccc2)cc1.O=C(O)CC(O)(CC(=O)O)C(=O)O [Clomiphene citrate (Z,E)] | – | – | %NTCP activity [1, 6]: 111.574%; %NTCP binding [2, 7]: 70.6525%
